Laboratory results from the supplement of paper PMC3334620.
In all, about 33,000 sequences were measured (“E-score (-0.5 to 0.5)”: median about -0.021, highest 2% from about 0.32 on). The list shows a part of the results.

The sequences below were run against T1, Zap1 (UniProt P47043) (assay: PBM E-score (8-mer binding enrichment) (E-score (-0.5 to 0.5)); higher = stronger / more preferred TF binding; most listed sequences are background and not binding sites). Details: protein concentration: 200 nM; construct: GST-full length.
T1 sequence: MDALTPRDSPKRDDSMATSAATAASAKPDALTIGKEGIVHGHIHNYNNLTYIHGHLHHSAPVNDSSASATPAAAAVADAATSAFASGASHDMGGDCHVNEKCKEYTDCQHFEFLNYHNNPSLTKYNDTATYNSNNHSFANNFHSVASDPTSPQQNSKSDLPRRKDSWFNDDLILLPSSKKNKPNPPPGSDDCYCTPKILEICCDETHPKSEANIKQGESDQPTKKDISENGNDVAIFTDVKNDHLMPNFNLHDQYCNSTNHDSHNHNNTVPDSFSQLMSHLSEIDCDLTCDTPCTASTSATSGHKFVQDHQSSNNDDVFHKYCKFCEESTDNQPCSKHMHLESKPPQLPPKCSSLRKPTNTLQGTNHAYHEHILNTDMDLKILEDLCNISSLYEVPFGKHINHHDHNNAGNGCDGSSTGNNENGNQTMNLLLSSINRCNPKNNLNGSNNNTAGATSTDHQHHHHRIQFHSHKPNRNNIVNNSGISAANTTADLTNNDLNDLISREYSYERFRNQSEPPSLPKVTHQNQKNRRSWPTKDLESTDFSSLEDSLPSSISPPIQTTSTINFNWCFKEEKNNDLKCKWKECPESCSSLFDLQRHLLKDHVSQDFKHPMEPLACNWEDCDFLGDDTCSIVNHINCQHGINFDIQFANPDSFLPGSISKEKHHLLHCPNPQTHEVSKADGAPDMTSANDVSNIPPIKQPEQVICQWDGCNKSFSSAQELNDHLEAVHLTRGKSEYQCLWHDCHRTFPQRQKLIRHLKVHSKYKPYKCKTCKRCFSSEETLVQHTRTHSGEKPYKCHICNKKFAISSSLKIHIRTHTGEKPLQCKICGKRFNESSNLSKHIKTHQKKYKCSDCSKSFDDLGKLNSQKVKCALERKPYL
Description: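 Universal 'all 10-mer' protein binding microarrays (Agilent AMADID 015681) probed with GST-tagged S. cerevisiae TFs (full-length or DBD) made by in vitro transcription/translation (PURExpress), about 100-200 nM. Bound TF was detected with fluorescent anti-GST. Each ungapped 8-mer (which stands for itself and its reverse complement) is scored by the PBM enrichment score (E-score), a modified Wilcoxon-Mann-Whitney statistic from -0.5 to +0.5, computed with the Universal PBM Analysis Suite. Scale: above 0.35 generally sequence-specific binding.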

| Sequence | PBM E-score |
| --- | --- |
| GTAATGAA | 0.0191 |
| AAACCATT | 0.197 |
| GATTGTCC | 0.0461 |
| GCTCACGA | -0.129 |
| CCGCCGGA | 0.00634 |
| AACCAAGC | 0.106 |
| ATGCTGTC | -0.167 |
| ATGCGTGA | 0.0522 |
| ACAGTTAC | 0.0755 |
| AACCACGC | 0.231 |
| CTATGGTA | 0.134 |
| ACAATATC | 0.0393 |
| CGGTCGGA | -0.0102 |
| AGTGCGTC | -0.233 |
| CGCGTACA | -0.0777 |
| GACCATAA | 0.287 |
| TAAAGGAA | 0.00829 |
| CGTAGACC | -0.109 |
| AGCGTTCG | -0.168 |
| ATAGGGCG | -0.263 |
| ATAAGCCA | 0.0432 |
| ACAGGTGG | -0.0999 |
| CGCCCACA | 0.134 |
| AAGGTAGC | 0.307 |
| CCTGCACG | 0.00093 |

| Sequence | PBM E-score |
| --- | --- |
| ATGCTACA | -0.184 |
| CTATTGAC | -0.0199 |
| CGTAAGAA | -0.0668 |
| AGAGCTGC | -0.365 |
| GATAATCC | -0.152 |
| AGTATAGC | -0.169 |
| CGTCGTGA | -0.0856 |
| ACTAACGA | -0.0161 |
| GCCCCGCC | 0.124 |
| CCTTCATA | 0.102 |
| AGGGGACT | 0.00277 |
| GTGCGCAA | -0.0569 |
| ACCTTTGG | 0.236 |
| GAGTTAGC | 0.0462 |
| TCCCTCGA | -0.0721 |
| CGAACGCG | -0.124 |
| GCAACTAA | 0.234 |
| CGTTTCGC | 0.0229 |
| AGTAAACA | 0.0727 |
| CAAGAAGC | -0.0179 |
| AGGCCTCA | -0.0843 |
| GTCGTCTA | -0.0759 |
| CCCCGGAC | -0.0901 |
| CACCCGGA | 0.235 |
| CCACTCAG | -0.133 |

| Sequence | PBM E-score |
| --- | --- |
| CTTACAGC | -0.11 |
| CAACGGAG | -0.226 |
| ATCGCCCC | -0.134 |
| CTTACTAC | -0.0448 |
| GGAGGGAC | -0.12 |
| CAGGACTG | -0.142 |
| ACTAGTGC | -0.111 |
| ACACTAAC | 0.124 |
| CACACCCA | 0.0555 |
| ATTTTTGG | 0.0429 |
| CGATAGAC | -0.0768 |
| GTCTCCAA | -0.0169 |
| CCGACGTA | -0.166 |
| CCTCCTAC | -0.0299 |
| GTACTAAA | 0.127 |
| ACGCACCC | -0.0807 |
| CTACGTTC | -0.187 |
| CTCTGTAC | -0.139 |
| ATCAGAAT | 0.0899 |
| AGCCCGCC | -0.207 |
| GAACGCTC | -0.342 |
| AGCAATCA | 0.0665 |
| ATATGACC | 0.245 |
| CTTCATGA | 0.134 |
| CAGCATGG | -0.00544 |

| Sequence | PBM E-score |
| --- | --- |
| GAAGCCCC | -0.272 |
| GAAATACC | 0.158 |
| AGGCAGGG | -0.14 |
| AGGAGAGG | -0.195 |
| CAGCGAGC | -0.0353 |
| ATAGGAAT | 0.0437 |
| CCTATTGC | -0.0524 |
| AAATACCT | 0.128 |
| AAATTCTC | -0.0791 |
| GCATGGGA | 0.00375 |
| GATCCCAA | 0.0124 |
| CGACCTGA | 0.11 |
| GCTGTATA | -0.179 |
| ACACTGGA | -0.0566 |
| AACGCCGT | -0.093 |
| AATCAGCG | 0.099 |
| GACATACA | 0.0466 |
| ACTAACTG | 0.126 |
| CATTTGTC | 0.00204 |
| GTAGAGGA | -0.274 |
| CATGAGGG | 0.0852 |
| GCCAGAGA | -0.0759 |
| ACCCTCGG | 0.329 |
| CATACTGA | 0.00678 |
| GAAGGTTA | 0.437 |

| Sequence | PBM E-score |
| --- | --- |
| CCCTTGAG | 0.33 |
| GCCACTGA | 0.0415 |
| ATAACTTC | 0.158 |
| AAGGAGGA | -0.291 |
| GAGCCTGA | -0.248 |
| GGAAAATA | 0.0887 |
| CCATAACG | 0.00872 |
| AACGTCTA | -0.0331 |
| AGAGAAGG | -0.204 |
| ATTGAATC | -0.158 |
| AGACTAAG | -0.0256 |
| ATTTCACG | 0.0742 |
| GAGCTTGA | -0.203 |
| CGGAACCC | 0.326 |
| ACCTGCTA | 0.0809 |
| ACTTATCC | 0.0364 |
| AGTTGAGG | 0.137 |
| GCCTGGAC | -0.195 |
| AAGGTTTC | 0.206 |
| AAATACTC | -0.0244 |
| GCGTCTAA | -0.113 |
| ACCTACCA | 0.126 |
| CGAGAGGC | -0.187 |
| AGGTCGCG | 0.238 |
| CGCTAGAA | 0.019 |

| Sequence | PBM E-score |
| --- | --- |
| ATGGCGGG | -0.0345 |
| CGGCAGCA | -0.227 |
| TCGTGGCA | -0.207 |
| GCGCTTAA | -0.0418 |
| CGACTTCC | -0.272 |
| ATGGCAGG | -0.0316 |
| GTCCGCAA | 0.121 |
| GCCTTTCA | -0.0871 |
| GGAGTCAC | -0.113 |
| AGACAAGG | -0.0613 |
| ATGGGCGA | -0.12 |
| ACTATGAA | -0.0246 |
| CGCAGCTC | -0.176 |
| AGATGCAA | -0.0256 |
| AACAGCAG | 0.0312 |
| AACAGACA | 0.0533 |
| CAATTCCG | -0.00437 |
| GACAGACC | 0.00176 |
| ATCACGAC | -0.103 |
| GCACTTGA | -0.119 |
| CGTATCAA | -0.0422 |
| AACAATAG | -0.032 |
| CTGATCAG | 0.103 |
| AGATTCTC | -0.0823 |
| ACACCTTA | 0.236 |

| Sequence | PBM E-score |
| --- | --- |
| ATGCGCTC | -0.119 |
| TGATTCCA | 0.0434 |
| AATGCAGG | -0.0578 |
| ACATAAGA | -0.0266 |
| ATTGTCGA | 0.019 |
| CACATGTC | -0.0103 |
| ACTACGAT | 0.0887 |
| AGTGCGCA | -0.0535 |
| CAGGAGCC | -0.164 |
| ATGCGCCG | -0.221 |
| AGGTTGGC | -0.0587 |
| GTGGCACA | -0.203 |
| AGTGTACC | 0.0741 |
| TAGCCCGA | -0.024 |
| CCGATGAA | 0.0704 |
| CTTTTTTC | 0.147 |
| GCCGGCGC | -0.063 |
| CTGGTTCC | 0.0559 |
| GATCCTGC | -0.023 |
| AGAGTCCT | -0.175 |
| TACTGCCA | 0.0605 |
| CCCGAAGC | -0.233 |
